Experimental data from the supplement of paper PMC10126150.
Values marked as one replicate rest on one cluster of the flow cell; about a third of the high ones do not repeat.

System: ATP
Assay: switch fluorescence ratio, 500 uM ATP over buffer (Cy3 cluster intensity, sum of 5 cycles each) (fold (ratio)); higher = stronger signal-on switching upon ATP binding; sequences stand for … in TCGTCGGCAGCGTCAGATGTGTATAAGAGACAGTTTTTTTTTTTTTTTTTTTTTTTTT…TC
Details: aptamer strand: ATP DNA aptamer (quencher-CACCTGGGGGAGTATTGCGGAGGAAGG + anchor), 100 nM annealed; ATP concentration: 500 uM; one replicate
Summary of the method: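 After annealing to 100 nM quencher-labelled ATP aptamer, Cy3-labelled switching-strand clusters on a modified Illumina MiSeq flow-cell were imaged in selection buffer. A second image followed after 15 min with 500 uM ATP at 22 °C, and five such buffer/ATP cycles were done, each separated by NaOH stripping and re-annealing. The fluorescence ratio, averaged per switch-domain sequence, is summed target-cycle over summed buffer-cycle Cy3 intensity per cluster, with clusters outside 100-1000 RFU excluded.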
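Note: ATP exposure 15 min at 22 °C before imaging.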

Row | Sequence | switch fluorescence ratio
1 | CCGTCTACCA | 1.07
2 | TATTTCTTGC | 0.977
3 | CGAAAGGTGG | 1
4 | AGATAAA | 0.988
5 | TTCGAGGATA | 0.994
6 | CTGGGATGAT | 0.974
7 | TTAAAACTAA | 0.986
8 | CGAATGATCG | 1.01
9 | GTGGCTTAAG | 1
10 | CGTGAAGGTT | 0.933
11 | TGCAGGCCT | 0.964
12 | TCTAATAAGA | 1.04
13 | AACAGACGTT | 1.21
14 | TGGGCTCAGT | 0.994
15 | AGAAGCACCA | 1.12
16 | TATTGCCGT | 1.05
17 | GGAGGCCCAT | 1.01
18 | TGGAAGCCTA | 1.09
19 | CGTTCCTATG | 1.09
20 | GGGATTGGG | 0.978
21 | CGGTCCTCAT | 0.992
22 | CGGGGCGCAC | 0.953
23 | TCCTTGTGTT | 1.04

Row | Sequence | switch fluorescence ratio
24 | ATATTCCGCA | 1.69
25 | CCAAATTAAG | 0.981
26 | GCAGTATGTC | 0.91
27 | TATATTCAGC | 1.01
28 | CGCGTCTTAT | 0.951
29 | ACGCCAGCAC | 1.53
30 | CGTGCCGCAC | 1.34
31 | AGCTCAAAAC | 1
32 | CTATTGCCTG | 0.942
33 | ATATAGCTAT | 1.03
34 | CTATGAATGT | 0.946
35 | ATTATTGAAA | 0.986
36 | AGGAATGAGC | 1.01
37 | TGTTTGTACC | 1.03
38 | TTATTCACGC | 1.02
39 | CAATCGGATG | 1.03
40 | GACAACTATC | 1.05
41 | GCCTCGATTC | 1.07
42 | CTGAGGCATA | 3.12
43 | ATCATCACGC | 1.06
44 | GTTTAGAATC | 1.01
45 | AATTAAATG | 1.04
46 | ATGGAAGATA | 1.05

Row | Sequence | switch fluorescence ratio
47 | CAGGGACTGC | 1.03
48 | GCCATTACAC | 0.983
49 | CCATAGGTGG | 1.02
50 | ATTGGTCTAC | 0.969
51 | GGCGCCTTGC | 1.01
52 | TCTTTAAACG | 0.994
53 | GTCAGGATCA | 0.995
54 | CGAGGAGAAC | 1.01
55 | TAGTAAGCCC | 1.06
56 | GATATCTAAC | 1.03
57 | CTATAGGTTC | 1.01
58 | AGTGAACGCG | 1.02
59 | CGCCTCGTGG | 0.96
60 | AGGGCTCGCG | 0.986
61 | GCCCGTGATA | 1.71
62 | TAGTAGTCTT | 1.01
63 | GCGGGTAACC | 0.989
64 | GCCGGCACTA | 1.02
65 | CAAGGCATCC | 1.08
66 | CCGGGTCGAG | 1.01
67 | ACTCTTAACG | 1.03
68 | CGGTTGTTAG | 1.01
69 | GGTCTCGTAC | 0.994

Row | Sequence | switch fluorescence ratio
70 | ACGGGTACGT | 0.998
71 | AACCGATGGT | 0.972
72 | ACCTCGAAGT | 1.04
73 | AAACGAGTTA | 1.06
74 | GAAATCCAGA | 0.951
75 | CGGAATATCA | 1.11
76 | CTAGAGTGGT | 1
77 | GCTTGTCGTA | 0.933
78 | GCTCGGGAAG | 0.99
79 | TGGACAGCAA | 2.21
80 | AGTTAGACTG | 0.992
81 | GCCCTAAGAA | 0.944
82 | TCCAGCGTGT | 1.06
83 | TCCGCCATCG | 2.27
84 | TGCTCCATCT | 1.03
85 | GTCGCTTGGG | 1.01
86 | CTGTGACAAC | 0.998
87 | TTTCGGCTTG | 0.992
88 | ACGTTGCCGT | 0.97
89 | AGACGAACGT | 0.941
90 | AGTTGGTTTG | 0.954
91 | AAGTCGGGCT | 1.04
92 | TGTGTGACCT | 1.11

Row | Sequence | switch fluorescence ratio
93 | TAGAGTGTT | 0.977
94 | TAAACACATC | 1.02
95 | ATCTAATCGC | 1.02
96 | AACGCGGAGT | 1.01
97 | TAAGGTGCCG | 0.934
98 | ACTCTGTCGG | 1.11
99 | CCGCGCCATT | 2.35
100 | GTCTGTAACA | 1.01
101 | CCTAGACCCG | 1.04
102 | ATCTTTTCTA | 1.01
103 | TGGATAAGAC | 1.05
104 | GGTTAATTCA | 1.01
105 | CAGTCAATGT | 1.05
106 | ATCAGTGGGC | 1
107 | TACAAGATAA | 1
108 | AACTCTTACA | 1
109 | CCTGTATCAG | 0.998
110 | TCCTGTCCTT | 1.01
111 | ATGCCTAACA | 0.945
112 | ATCTCAGCGC | 1.01
113 | GTGAGTGTGC | 0.902
114 | ATCCGGATCA | 1.04
115 | AGGGCATGTA | 0.979

Row | Sequence | switch fluorescence ratio
116 | GAGGTCATCA | 1.04
117 | ACTATTTGCC | 1.04
118 | GTCCGTCGCG | 1.06
119 | GGAGTCAGGT | 1.01
120 | TTCGATAGTG | 1.02
121 | TTACGAGCAC | 1.66
122 | TGGGACTCAG | 0.978
123 | GAGACACATT | 1.01
124 | TTATGCATAG | 0.999
125 | CGACCGTCTA | 1.04
126 | GTCGAATGCT | 1.04
127 | TCTGAAAATA | 1.91
128 | TTCAGGGGT | 1.08
129 | CTTCGGTCAC | 1.42
130 | GCTCCTAATG | 1.08
131 | GGTCCCAGCG | 1.16
132 | CTACGTTACG | 1.39
133 | TTCATGTAGA | 0.991
134 | GTTACCACGC | 1.03
135 | CTCGCCAGTC | 1.18
136 | TAACGGCGCC | 0.965
137 | AATGGGGCCG | 0.988
138 | TTTCGCTGTA | 0.959

Row | Sequence | switch fluorescence ratio
139 | TTAATCGTCG | 1.09
140 | ATCAGCAAC | 2
141 | ACGGTATCAG | 1.09
142 | GGTATTGAGC | 1.03
143 | GACGTCCGTG | 1.01
144 | CGTTGGCGAA | 0.992
145 | GATCATGGTG | 1.04
146 | GGTGTCTACG | 0.997
147 | CTTCATAGTT | 0.985
148 | TTATGAACCC | 1.05
149 | CAACCCTTTG | 0.994
150 | AATCGGGTGA | 1.08
151 | ATAGACTAAC | 1.06
152 | AGTCCGGGCG | 0.998
153 | GCCCGAACCT | 1.65
154 | GAAAATTTGG | 1.01
155 | GTGCGCAGGT | 1.03
156 | ATTTTCCGCT | 1.06
157 | AGGGAACCG | 1.13
